Measured values taken from the supplement of paper PMC3334620.
In all, about 33,000 sequences were measured (“E-score (-0.5 to 0.5)”: median about -0.04, highest 2% from about 0.36 on). This is one part of the list.

molecular target: T1, Hmlalpha2 (UniProt P0CY09); assay: PBM E-score (8-mer binding enrichment) (E-score (-0.5 to 0.5)); higher = stronger / more preferred TF binding; most listed sequences are background and not binding sites; conditions: protein concentration: 200 nM; construct: GST-full length
T1 sequence: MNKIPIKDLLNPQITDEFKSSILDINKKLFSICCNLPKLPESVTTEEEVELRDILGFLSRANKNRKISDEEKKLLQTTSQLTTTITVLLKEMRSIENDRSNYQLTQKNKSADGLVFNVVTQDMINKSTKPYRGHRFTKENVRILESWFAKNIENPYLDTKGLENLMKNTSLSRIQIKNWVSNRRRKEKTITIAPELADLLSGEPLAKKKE
In short: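 Full-length yeast transcription factors or their DNA-binding domains, GST-tagged and expressed with PURExpress, were applied at about 100-200 nM to universal all-10-mer Agilent arrays. These arrays had been made double-stranded by primer extension on fresh or once-stripped slides. Detection used fluorescent anti-GST, normalisation used masliner, and E-scores for ungapped eight-base words pooled with reverse complements came from the Universal PBM Analysis Suite.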

| Sequence | PBM E-score |
| --- | --- |
| TACAGCCA | -0.0918 |
| CGTAATAA | 0.378 |
| CGCACTAA | -0.0506 |
| ACGAGGAC | -0.0504 |
| CGTATCGC | -0.0235 |
| ATCGAAGA | 0.0799 |
| GCCCCCAC | -0.415 |
| CTCCTCTC | -0.348 |
| CACGCCTG | -0.0229 |
| AAGTACCG | 0.0496 |
| CTGAACGA | -0.0948 |
| ATGCCGTA | 0.0919 |
| CGCATTGC | 0.121 |
| GCCTTACA | 0.194 |
| CGGATCAC | 0.0757 |
| CCCTTTAA | 0.185 |
| TATACGGA | -0.0953 |
| AGACAGCC | -0.182 |
| TATGCTAA | 0.192 |
| CCACCGTC | -0.3 |
| AGTAAGCG | 0.0244 |
| AAGTTCTC | -0.0814 |

| Sequence | PBM E-score |
| --- | --- |
| AAGTTTGT | 0.202 |
| CCATCCGC | -0.0478 |
| GTCACATA | 0.163 |
| AACCGATC | -0.0925 |
| CACACACC | 0.187 |
| CTCCGGCC | -0.413 |
| CTCTCTCA | -0.174 |
| CATCTCAC | -0.117 |
| ACATCGTG | 0.217 |
| AAGGATTG | 0.0457 |
| AGCACCAA | -0.119 |
| CGTCCCCA | -0.224 |
| GGATTTGA | -0.0425 |
| AATACGCC | 0.0351 |
| AAAGCACT | -0.127 |
| CTCTGCAC | -0.0882 |
| CCGCTATC | -0.24 |
| AAAGCGAC | 0.0782 |
| GGGAATAA | -0.0908 |
| ATAAAAAG | 0.19 |
| ACGACCCG | -0.119 |
| ACGGGGGA | -0.221 |

| Sequence | PBM E-score |
| --- | --- |
| CACGGTGC | -0.0221 |
| CCATCGCC | -0.261 |
| CCTATACA | 0.248 |
| CATTATCG | -0.0306 |
| ATCGGTCA | -0.274 |
| GACGGTTA | -0.114 |
| ACAAGGAT | 0.316 |
| GAATAATA | 0.168 |
| ACGGAACC | 0.183 |
| CTACGTAC | 0.251 |
| CTGGTGAA | -0.0118 |
| ATACACAT | 0.399 |
| GTACAGCA | 0.0142 |
| ACAGATAC | 0.217 |
| AGGTTTTC | 0.0423 |
| ACCTTAAA | -0.106 |
| AATTCGGT | 0.00366 |
| AGCCTAGG | -0.315 |
| GGTATCAC | -0.148 |
| GGCATCAC | -0.252 |
| ACTTAATC | 0.0112 |
| ACGATTGC | 0.145 |

| Sequence | PBM E-score |
| --- | --- |
| GTCACCTA | -0.131 |
| CTGTATAC | 0.247 |
| GTCAGTCA | -0.0821 |
| GCGCTGAC | -0.254 |
| CTGCACCC | -0.243 |
| CGAGGAAA | -0.116 |
| ATGACGGC | -0.157 |
| CTATTTTC | 0.0227 |
| CATAGTGA | 0.00455 |
| CGCAGACA | 0.0313 |
| ATGGTCAA | 0.122 |
| CATCCCAG | -0.193 |
| ATATTCCA | 0.11 |
| CATATACA | 0.364 |
| GGATGCCC | -0.234 |
| ACCGAGCT | 0.0168 |
| CTAGGTAC | -0.0167 |
| TCGTTGAA | 0.1 |
| ATAACTCC | -0.162 |
| AAATCCTC | -0.126 |
